Measurements as given in PubChem BioAssay AID463173 (ICCB-Longwood Screening Facility, Harvard Medical School, 2010).
Hit rate of the full screen: of about 52,000 compounds, about 1,700 (3.3%) were called active. Cut-off read from the data, not from the text of the source: active = survival mostly below about 52% (no sharp cut-off); inactive = mostly above about 56%. The list shows a part of the results.

Tested on: Wild type
Experiment: growth inhibition of S. aureus wild type versus tarO mutant, primary screen, teichoic acid synthesis inhibitors, RN4220, OD600 (AID 463173)
Conditions: S. aureus RN4220 wild type/DeltatarO growth, OD600, 18 h, hits give low values, screened at 18.75 µg/mL (by protocol)

SMILES	survival
Cc1ccccc1C(=O)N(Cc1sccc1C)C1CCS(=O)(=O)C1 (stereo not drawn)	inactive: 87%
CC1CCCCN1CCCNC(=O)CN1C(=O)c2cccnc2Oc2ccccc21 (stereo not drawn)	inactive: 119%
COc1ccc(Cl)cc1NC(=O)c1c(NCc2cccnc2)sc2c1CCC(C)C2 (stereo not drawn)	inactive: 74%
Cc1ccc(Cl)cc1NC(=O)CCCn1c(=O)c2cccn2c2cccnc21	inactive: 88%
COc1ccccc1NC(=O)C1=C(C)Nc2c(C(=O)Nc3cccc(C)c3)cnn2C1c1ccccc1Cl (stereo not drawn)	active: -6%
C=CCN1C(=O)C2C(C(=O)NCc3ccccc3)C3C=CC2(O3)C1C(=O)NC1CCCC1 (stereo not drawn)	inactive: 105%
CCN1CCN(C(c2ccc(SC)cc2)c2c(O)cc(C)n(CCOC)c2=O)CC1 (stereo not drawn)	inactive: 128%
CCCCN(CC)C(=O)C1CCCN(c2ncnc3onc(C)c23)C1 (stereo not drawn)	inactive: 92%
COCCCNC(=O)c1ccc(Cn2c(=O)c3ccccc3n(Cc3c(C)cc(C)cc3C)c2=O)cc1	inactive: 92%
CCOC(=O)c1ccc(CN(Cc2ccc(Br)cc2)S(=O)(=O)c2cccc(Cl)c2C)cc1	inactive: 82%
O=c1cc(-c2ccc(F)cc2)nc(SCc2nc(-c3ccc(Cl)cc3)no2)[nH]1	inactive: 88%
CCOC(=O)c1c(C)[nH]c(C)c1S(=O)(=O)NCC(=O)NCc1cccc(C)c1	inactive: 159%
COc1cc(C(=O)NCC(c2ccc(Cl)cc2)N2CCOCC2)cc(OC)c1OC (stereo not drawn)	inactive: 79%
N#CC(C#N)=Cc1cn(CCOc2ccc3c(c2)OCO3)c2ccccc12	inactive: 105%
CCc1ccc(C2C(C(=O)Nc3ccccc3C)=C(C)Nc3nc(SCc4cccc(OC)c4)nn32)cc1 (stereo not drawn)	inactive: 146%
CCOC(=O)CC(NC(=O)Cn1nnc(-c2ccccc2F)n1)c1ccccc1Cl (stereo not drawn)	inactive: 89%
CCS(=O)(=O)c1ncc(N(Cc2ccco2)Cc2ccccc2F)c(C(=O)Nc2cccc(Cl)c2)n1	inactive: 84%
O=C(Cn1c(=O)nc(-c2ccccc2)c2ccccc21)NCc1ccccc1Cl	inactive: 73%
Cc1ccc(N2CCN(C(=O)c3cn(C)c4ccc(S(=O)(=O)N(C)C)cc4c3=O)CC2C)cc1 (stereo not drawn)	inactive: 131%
CC(=O)c1ccc(NC(=O)CSc2nc(=O)n(Cc3ccncc3)c3c2CCC3)cc1	inactive: 68%
CC(C)(Oc1ccc(Br)cc1)C(=O)Nc1cc(-c2nc3ccccc3[nH]2)ccc1Cl	inactive: 79%
O=C(CN1N=C(c2ccc(Cl)cc2)CCC1=O)NCCc1ccccc1	inactive: 73%

SMILES	survival
CCc1c(C)nc2nncn2c1NCc1ccc(Cl)cc1	inactive: 87%
Cc1ccc(NC(=O)Cn2nc(Cc3ccncc3)c3ccccc3c2=O)c(Cl)c1	inactive: 85%
COc1ccccc1CNC(=O)CN1N=C(c2ccccc2)CCC1=O	inactive: 134%
CCOc1ccc(NC(=O)c2oc3ccccc3c2NC(=O)c2ccc(OC)cc2OC)cc1	inactive: 68%
COc1cc(CNCCSc2nnnn2C)cc(Cl)c1OCc1ccccc1	inactive: 59%
COc1ccc(CNC(=O)CS(=O)Cc2nc(-c3cccc(C)c3)oc2C)cc1 (stereo not drawn)	inactive: 84%
Fc1ccccc1N1CCN(c2nccn3nc(-c4ccc(Br)cc4)cc23)CC1	inactive: 69%
CCCCN(CC)CCNC(=O)c1cc2c(=O)n(CC)c3ccccc3c2s1	inactive: 67%
CCCCNc1nc2ccccc2c2nc(-c3ccccc3)nn12	active: -1%
CC(CN1CCCCC1)OC(=O)c1ccc2c(c1)OCO2 (stereo not drawn)	inactive: 104%
O=C1C2C(C(=O)N1C13CC4CC(CC(C4)C1)C3)C1C=CC2C12CC2 (stereo not drawn)	inactive: 114%
Cc1nc(SCCOc2ccccc2F)[nH]c(=O)c1Cc1ccccc1	inactive: 86%
Cc1ccccc1NC(=O)c1oc2c(c1C)-c1nn(Cc3cccc(Cl)c3)cc1CC2	inactive: 66%
Cc1ccc(-n2c(COCC(=O)O)nc3cccnc32)cc1	inactive: 82%
Cc1oc(-c2ccc(Cl)cc2)nc1CN1CCCC(C(=O)NCc2ccccc2)C1 (stereo not drawn)	inactive: 88%
Cc1ccc(/C=C(\C#N)C(=O)Nc2cccc(Br)c2)o1	inactive: 83%
CCN1CCN(C(c2ccccc2Cl)c2c(O)cc(C)n(CCOC)c2=O)CC1 (stereo not drawn)	inactive: 113%
CC(C)CNC(=O)c1ccccc1NC(=O)c1ccco1	inactive: 112%
Cc1ccc(Cl)cc1N1CCN(C(=O)c2cc3c(=O)oc4ccccc4c3s2)CC1	inactive: 71%
O=c1[nH]cnc(O)c1Cc1c(O)nc[nH]c1=O	inactive: 103%
Nc1nn(-c2ccccc2)nc1C(=O)OCc1ccccc1	inactive: 85%
CC1CCCN(CCCNC(=O)Cn2ncc3c([nH]c4ccccc43)c2=O)C1 (stereo not drawn)	inactive: 87%

SMILES	survival
Cc1ccccc1OCCn1c(CCNC(=O)C2CCCCC2)nc2ccccc21	inactive: 90%
Cc1nc2ccc(S(=O)(=O)NCC(=O)Nc3ccc(F)cc3F)cc2s1	inactive: 128%
Cc1ccc(S(=O)(=O)N2CCN(Cc3nc4ccc(C)cc4o3)CC2)c(C)c1	inactive: 71%
CCOC(=O)Cc1ccc(NC(=O)N(Cc2ccc(CC)cc2)Cc2cn[nH]c2-c2ccc(OC)cc2)cc1	inactive: 76%
COc1cccc(C(=O)Nc2nc(-c3ccc(Br)cc3)ns2)c1	inactive: 84%
CCOC(=O)c1c(C)[nH]c(C)c1S(=O)(=O)N(C)CC(=O)Nc1ccc(C)cc1Br	inactive: 75%
COCCCNC(=O)CSC1=Nc2ccccc2C2=NC(CCC(=O)NCc3ccc(OC)cc3)C(=O)N12 (stereo not drawn)	inactive: 73%
CCc1ccc(OCCn2c(C3CC(=O)N(Cc4ccc(F)cc4)C3)nc3ccccc32)cc1 (stereo not drawn)	active: -14%
CC(C)(C)C(=O)Nc1ccccc1C(=O)OCc1cc(=O)n2ccsc2n1	inactive: 53%
CCc1ccccc1-n1nnc(-c2nsc(NC(=O)c3ccc(C)c(C)c3)n2)c1C	inactive: 134%
Cc1ccc(-n2c(SCC(=O)N3CCCc4ccccc43)nc3c([nH]c4ccccc43)c2=O)cc1	inactive: 80%
CCc1ccc(C2=CC(c3c(F)cccc3Cl)n3c(nc4ccccc43)N2)cc1 (stereo not drawn)	inactive: 82%
Cc1cc(C)cc(NC(=O)CSc2nc3nccnc3c(=O)n2CCc2c[nH]c3ccccc23)c1	inactive: 80%
Cc1ccc(-c2cn3ccc(C)cc3n2)cc1	inactive: 27%
CC(C)CCn1c(/C=C/c2ccccc2)nc2ccccc21	active: -1%
CCOC(=O)Cn1c(=O)n(C2CCCCC2)c2nc(-c3c(F)cccc3Cl)nc(C(N)=O)c21	inactive: 80%
Cc1cccc(NC(=O)Cn2c(=O)n(CCCCCC(=O)NCc3ccc4c(c3)OCO4)c(=O)c3sccc32)c1	inactive: 87%
O=C(COC(=O)C1CCC(N2C(=O)C3C4C=CC(C4)C3C2=O)CC1)c1ccc(F)cc1 (stereo not drawn)	inactive: 108%
COC(=O)c1scc(-c2ccc(C)cc2)c1S(=O)(=O)Nc1cc(C)ccc1OC	inactive: 83%
COc1ccc(Nc2nc(C)nc(N)c2S(=O)(=O)c2ccccc2)cc1	inactive: 76%
O=C(c1ccc2c(c1)N(Cc1ccccc1)C(=O)c1ccccc1S2(=O)=O)N1CCN(Cc2ccccc2)CC1	inactive: 89%
COc1ccccc1C(=O)Nc1sc(Nc2ccccc2)nc1C(N)=O	inactive: 146%

SMILES	survival
Cc1ccc(NC(=O)c2cnc3sc(N4CCOCC4)nn3c2=O)cc1N(C)C	inactive: 82%
Cc1ccc(C)c(N2CCN(CCCNC(=O)c3ccc4nc(CCc5ccccc5)oc4c3)CC2)c1	inactive: 68%
CCCNC(=O)C1CCC(Cn2c(=O)c3sccc3n(CC(=O)NCc3cccc(OC)c3OC)c2=O)CC1 (stereo not drawn)	inactive: 133%
CCOc1ccc(N2CC(NC(=O)C3CCCC3)CC2=O)cc1 (stereo not drawn)	inactive: 84%
COc1ccc(OC)c(NS(=O)(=O)c2ccc(N3CCCCS3(=O)=O)cc2)c1	inactive: 75%
Cc1ccc(C(=O)N/C(=C\c2ccc(Cl)cc2)C(=O)NC2CCCCC2)cc1	inactive: 100%
COc1cccc(N2CC(NC(=O)c3cc(Cl)ccc3OC)CC2=O)c1 (stereo not drawn)	inactive: 75%
N#Cc1c(C(F)(F)F)cc(-c2cccs2)nc1SCC(=O)Nc1cccc(Cl)c1	inactive: 69%
COCc1nnc(NC(=O)C2CC(=O)N(c3ccc(C)cc3)C2)s1 (stereo not drawn)	inactive: 95%
CC(=O)c1cccc(NC(=O)CN(c2cc(C)cc(C)c2)S(=O)(=O)c2c(C)noc2C)c1	inactive: 73%
COc1ccc(NC(=O)c2ccco2)cc1NC(=O)c1cc(OC)c(OC)c(OC)c1	inactive: 94%
Cc1cc(-n2ccnc(NCCc3ccc(S(N)(=O)=O)cc3)c2=O)ccc1Br	inactive: 75%
COc1ccc(-c2onc(C)c2C)cc1S(=O)(=O)N(C)Cc1ccccc1	inactive: 129%
COc1cc(OC)c(N(C)C(=O)c2c(C)oc3ncn(CC(C)C)c(=O)c23)cc1Cl	inactive: 51%
CCSc1nnc2nc(C)cc(C)n12	inactive: 107%
Cc1c(-c2ccccc2)nc2c(Cl)cccc2c1C(=O)OCC(=O)c1ccc(F)cc1	inactive: 92%
CCOC(=O)CSc1nc2cc3c(cc2c(=O)n1Cc1ccc(C(=O)NCCc2ccc(OC)c(OC)c2)cc1)OCO3	inactive: 51%
Cc1cc(C)c2c(CC(=O)N(Cc3ccc(Cl)cc3)Cc3ccco3)coc2c1	inactive: 93%
O=C(Nc1ccccc1)c1nc[nH]c1C(=O)O	inactive: 58%
CCOc1ccccc1C(=O)N(Cc1sccc1C)C1CCS(=O)(=O)C1 (stereo not drawn)	inactive: 89%
COc1ccc(-c2cc(C(F)(F)F)nc(SCC(=O)NCCc3ccccc3)n2)cc1	inactive: 140%
Cc1ccc(NC(=O)Cn2cc(S(=O)(=O)Cc3ccc(F)cc3)c3ccccc32)cc1Cl	inactive: 77%
